Measured values reported in US5242908A, “Use of benzylphosphonic acid derivatives for the treatment of diseases caused by viruses” (priority 1990, dated 1993).
Read-outs that look alike come from different tables or passages of the source.

How the values were obtained:
[1] = tested on: Friend leukemia virus (FLV); assay type: in vivo, NMRI mice; settings: once per day, 10 days
[2] = tested on: Influenza A2; settings: twice daily for 2.5 days; for Survivors: groups of 5 mice
[3] = tested on: myxoviruses (influenza A2); assay: microbe, parasite or virus in culture; settings: read-out: Influenza A2 MIC (minimum inhibitory concentration)

`CCCCOP(=O)(Cc1ccccc1C)OCCCC` [M, di-n-butyl 2-methylbenzylphosphonate] was tested, and the “FLV Survival rate” value ([1]; ip 50 mg/kg) was 90%, the Relative spleen weight ([1]; ip 50 mg/kg) was 7.46% and the Average survival time ([2]; po 0.25 mg/kg) was 7.0 days. For the same molecule, the Survivors ([2]; po 0.25 mg/kg) was 4, the Average survival time ([2]; po 2.5 mg/kg) was 7.0 days and the Survivors ([2]; po 2.5 mg/kg) was 4. For the same molecule, the Survivors ([2]; po 25 mg/kg) was 5, the Survivors ([2]; sc 0.25 mg/kg) was 5 and the Average survival time ([2]; sc 2.5 mg/kg) was 7.0 days. The Survivors ([2]; sc 2.5 mg/kg) was 3 and the Survivors ([2]; sc 25 mg/kg) was 5.

`Cc1ccccc1CP(=O)(O)O` [O, di-triethylammonium 2-methylbenzylphosphonate] was tested, and the MIC [3] was 14.8 µg/mL, the “FLV Survival rate” value ([1]; ip 10 mg/kg) was 90% and the Relative spleen weight ([1]; ip 10 mg/kg) was 6.32%. For the same molecule, the “FLV Survival rate” value ([1]; ip 30 mg/kg) was 90%, the Relative spleen weight ([1]; ip 30 mg/kg) was 5.06% and the Survivors ([2]; po 0.25 mg/kg) was 5. It also gave an Average survival time ([2]; po 2.5 mg/kg) of 8.5 days, a Survivors ([2]; po 2.5 mg/kg) of 3 and an Average survival time ([2]; po 25 mg/kg) of 9.0 days. It also gave a Survivors ([2]; po 25 mg/kg) of 3.

For `CCOP(=O)(Cc1ccccc1[N+](=O)[O-])OCC` [U, Diethyl 2-nitrobenzylphosphonate], the “FLV Survival rate” value ([1]; ip 50 mg/kg) was 90%, the Relative spleen weight ([1]; ip 50 mg/kg) was 7.56% and the Average survival time ([2]; sc 0.25 mg/kg) was 7.0 days. The Survivors ([2]; sc 0.25 mg/kg) was 4, the Average survival time ([2]; sc 2.5 mg/kg) was 7.0 days and the Survivors ([2]; sc 2.5 mg/kg) was 4. For the same molecule, the Average survival time ([2]; sc 25 mg/kg) was 7.3 days and the Survivors ([2]; sc 25 mg/kg) was 2.
